Hit rate of the full screen: of about 310,000 compounds, about 14,000 (4.5%) showed an effect of 50% or more. The effect is printed as a negative number. This is one part of the list.
Target: human ether-à-go-go-related gene (hERG) potassium channel (human, UniProt Q12809)
Test: primary screen, population patch clamp on CHO cells stably expressing hERG
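Also: peak tail current of the secondary pulse compared with the same well before compound.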

Chain of human ether-à-go-go-related gene (hERG) potassium channel (Q12809 whole entry, looked up): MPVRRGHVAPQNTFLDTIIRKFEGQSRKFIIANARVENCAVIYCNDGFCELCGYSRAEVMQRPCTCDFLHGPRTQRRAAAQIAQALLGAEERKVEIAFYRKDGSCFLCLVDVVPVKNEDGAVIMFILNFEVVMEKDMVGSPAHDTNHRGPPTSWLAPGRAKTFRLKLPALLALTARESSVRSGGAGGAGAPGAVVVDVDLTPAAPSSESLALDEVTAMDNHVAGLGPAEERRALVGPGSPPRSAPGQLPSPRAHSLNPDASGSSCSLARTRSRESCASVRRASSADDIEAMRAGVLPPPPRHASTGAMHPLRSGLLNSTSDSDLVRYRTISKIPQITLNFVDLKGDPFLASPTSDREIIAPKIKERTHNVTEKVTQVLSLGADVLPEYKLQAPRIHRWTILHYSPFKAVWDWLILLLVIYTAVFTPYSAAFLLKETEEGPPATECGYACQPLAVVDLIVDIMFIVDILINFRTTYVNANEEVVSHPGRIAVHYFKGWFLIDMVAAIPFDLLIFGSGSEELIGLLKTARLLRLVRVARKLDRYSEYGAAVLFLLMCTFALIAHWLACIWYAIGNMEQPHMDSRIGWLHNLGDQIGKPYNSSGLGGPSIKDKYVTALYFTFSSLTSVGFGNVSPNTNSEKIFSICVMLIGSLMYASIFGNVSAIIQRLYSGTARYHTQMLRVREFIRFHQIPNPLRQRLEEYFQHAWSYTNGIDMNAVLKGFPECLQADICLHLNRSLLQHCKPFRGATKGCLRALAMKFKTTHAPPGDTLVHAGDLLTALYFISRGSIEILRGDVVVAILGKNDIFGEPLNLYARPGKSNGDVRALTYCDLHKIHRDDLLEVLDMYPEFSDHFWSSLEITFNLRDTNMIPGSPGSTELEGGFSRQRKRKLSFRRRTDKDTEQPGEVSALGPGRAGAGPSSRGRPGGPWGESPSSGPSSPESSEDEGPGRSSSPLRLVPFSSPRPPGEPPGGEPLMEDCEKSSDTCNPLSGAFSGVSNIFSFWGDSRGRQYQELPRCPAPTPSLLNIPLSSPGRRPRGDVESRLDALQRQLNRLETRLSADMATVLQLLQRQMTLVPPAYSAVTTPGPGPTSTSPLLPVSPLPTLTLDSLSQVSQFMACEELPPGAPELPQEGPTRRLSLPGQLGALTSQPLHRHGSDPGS

Compound | hERG current change (%, negative = inhibition) at 10uM
COc1cccc(-c2ncc3ccccc3c2COC(=O)c2cccs2)c1 | -3.16%
CCN1C[C@]2(C)CC[C@H](OC)[C@]34C2[C@H](OC(C)=O)[C@@]2(OCO[C@@]25C[C@H](OC)[C@H]2C[C@]3(O)C5[C@H]2OC)[C@@H]14 | 39.8%
Cc1ccccc1C(=O)NNc1ncnc2c1cnn2C | 9.81%
COc1ccc(/C=N/Nc2nonc2N)c(OC)c1 | 9.92%
C[N+](C)(C)CC#CCOC(=O)Nc1cccc(Cl)c1.[Cl-] | -0.897%
CSc1nnc(Cc2ccc3c(c2)OCO3)o1 | 1.83%
N#CC1=C(SCc2ccccc2)NC(=O)CC1c1cccc(O)c1 (stereo not drawn) | -17.5%
CCCn1c(=O)c2ccccc2n2c(SCC(=O)/C(C#N)=C(\C)N)nnc12 | 2.18%
NC1=NC(=O)/C(=C/c2cccc(F)c2)S1 | 25.2%
Fc1ccccc1N1CCN(CCCNc2ccc3nncn3n2)CC1 | -10.4%
COc1ccc(CNC(=O)C2CCCN2CCc2ccccc2)cc1OC (stereo not drawn) | -46.9%
CC(C)(C)c1ccccc1NC(=O)c1ccc2c(c1)SC1=NS(=O)(=O)CCN12 | 6.51%
COc1ccc(Cl)cc1NC(=O)NCC1CCN(Cc2ccccc2F)CC1 | -37.7%
COc1cc2nc(Nc3cccc(F)c3)nc(N)c2cc1OC.Cl | -17.7%
Cc1cc2nc(N3CCN(C(=O)c4cccs4)CC3)sc2cc1C | 1.39%
Nc1cccc(C(=O)Nc2cccc3ncccc23)c1 | 23.8%
CCOc1cc(C(=O)Nc2ccccc2N2CCN(S(C)(=O)=O)CC2)cc(OCC)c1OCC | -29.1%
O=C(O)c1ccc(NC(CSCc2cccc(F)c2)C(=O)O)c([N+](=O)[O-])c1 (stereo not drawn) | 23.2%
COc1cccc(N2CCN(C3CC(=O)N(c4ccc(Cl)c(Cl)c4)C3=O)CC2)c1 (stereo not drawn) | -0.0262%
Cc1ccccc1-c1nnc(SCc2ccccc2)o1 | 1.07%
Oc1ccc(Cl)cc1C1=NNC(c2cccs2)C1 (stereo not drawn) | 9.76%
COc1ccc(OCC(=O)Nc2c(C(=O)N3CCC(N4CCCCC4)CC3)oc3ccccc23)cc1 | -87.7%
CN(C)S(=O)(=O)c1ccc(NC(=O)N2CCN(c3cccc(C(F)(F)F)c3)CC2)cc1 | 7.83%
CC1CCCCN1C(=O)CCS(=O)(=O)c1cc2c(cc1Cl)NC(=O)CO2 (stereo not drawn) | -25.6%
CC(=O)Nc1ccc(S(=O)(=O)N2CCN(c3cc(C)nc4ccccc34)CC2)cc1 | -88.5%
Cc1c(NC(=S)N/C(=N/S(=O)(=O)c2ccc(Cl)cc2)c2ccccc2)c(=O)n(-c2ccccc2)n1C | -0.322%
O=C(CSc1ncccn1)NCc1ccc(F)cc1 | 1.15%

Compound | hERG current change (%, negative = inhibition) at 10uM
COc1ccc(C(=O)Nc2nc(CC(=O)NCCc3ccccc3OC)cs2)cc1 | -6.94%
COc1cc(/C=N/NC(=O)c2ccccc2)ccc1O | -10.1%
CCOc1c(Cl)cc(CNc2nnnn2C)cc1OC | 10%
O=c1cc(O)sc2ccccc12 | 11.3%
Cc1ccc(Cl)cc1NC(=S)N(Cc1ccco1)C(C)c1cccs1 (stereo not drawn) | 5.05%
COCCn1c(=S)[nH]c2ccc(N(C)C)cc2c1=O | -3.99%
CCOc1cc(/C=N/NC(=O)c2cccc([N+](=O)[O-])c2)ccc1OS(=O)(=O)c1ccccc1 | -19%
N/C(=N\OC(=O)C12CC3CC(CC(C3)C1)C2)c1cccnc1 | -7.01%
NC(=O)c1ccc(C2SCC(=O)N2CCc2ccccc2)cc1 (stereo not drawn) | -12.3%
O=C(COc1ccc(C(=S)N2CCOCC2)cc1Cl)Nc1ccccc1Cl | 12.7%
CCOc1ccc(NC(=O)COC(=O)CCS(=O)(=O)c2ccc(C)cc2)cc1 | 8.85%
CC(C)c1ncc(S(=O)(=O)c2ccc(C(F)(F)F)cn2)c(N)n1 | 11.6%
NC(=O)c1ccc(NC(=O)C2CC(=O)N(c3ccc4c(c3)OCCO4)C2)cc1 (stereo not drawn) | 3.81%
Cc1ccc(S(=O)(=O)C/N=C(/NC(=S)N(c2ccccc2)c2ccccc2)c2ccccc2)cc1 | -6.32%
Cc1cccc(N2C(=O)CC(SC(N)=Nc3ccccc3)C2=O)c1 (stereo not drawn) | 20.7%
CCOC(=O)N1CCC(NC(=O)C2CCN(S(=O)(=O)c3cccc4cccnc34)CC2)CC1 | -8.24%
CN1C[C@@H]2C(c3ccccc3)C3(c4ccc(C#N)cc4)CC2(C3)[C@H]1c1ccccc1 (stereo partly drawn) | -32.5%
CC1=NN(c2ccccc2)C(=O)/C1=C/c1cc(C)n(C2CC2)c1C | 18.8%
CCCCN(CCCC)C(=O)CCS(=O)(=O)c1ccc2c(c1)n(C)c(=O)c(=O)n2C | -69.2%
CCOc1cc(NC(=O)c2ccco2)c(OCC)cc1NC(=O)c1ccco1 | -0.564%
COC(=O)c1c(NC(=S)Nc2ccc(CC(=O)O)cc2)sc(C)c1C | 21.2%
Cc1ccccc1OC(C)C(=O)Nc1ccc(S(=O)(=O)N2CCCC2)cc1 (stereo not drawn) | -23.6%
CC1=C(C)CS(=O)N(S(=O)(=O)c2ccc(Cl)cc2)C1 (stereo not drawn) | -1.52%
CN1CCN(C(=O)c2cc3ccccc3oc2=O)CC1 | 6.08%
CN(C)S(=O)(=O)c1cccc(NC(=O)CN2C(=O)NC(Cc3ccccc3)C2=O)c1 (stereo not drawn) | -11.9%
O=C(NCCO)/C(=C/c1ccc(Br)cc1)NC(=O)c1cccs1 | -14%
CCC1(C)NC(=O)N(CC(=O)N2CCN(c3cccc(Cl)c3)CC2)C1=O (stereo not drawn) | 11.2%

Source: article PMC4336329 (PLoS ONE, 2015)
